Laboratory results published in PMC6919601, “Identification of Plasmodium dipeptidyl aminopeptidase allosteric inhibitors by high throughput screening” (PLoS ONE, 2019).
The campaign covered roughly 110,000 compounds. About 230 (0.21%) showed an effect of 50% or more. This is one part of the list.

Target: DPAP1 (Plasmodium falciparum, UniProt Q8IIJ9)
Experiment: primary screen, percent inhibition; read by cleavage of a fluorogenic dipeptide substrate; higher = more effect of the substance
Parameters: species or system P. falciparum D10 trophozoite lysates; single well
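Also: 30 min substrate incubation versus DMSO and 10 µM JCP410 controls.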

Chain of DPAP1 (Q8IIJ9 whole entry, looked up): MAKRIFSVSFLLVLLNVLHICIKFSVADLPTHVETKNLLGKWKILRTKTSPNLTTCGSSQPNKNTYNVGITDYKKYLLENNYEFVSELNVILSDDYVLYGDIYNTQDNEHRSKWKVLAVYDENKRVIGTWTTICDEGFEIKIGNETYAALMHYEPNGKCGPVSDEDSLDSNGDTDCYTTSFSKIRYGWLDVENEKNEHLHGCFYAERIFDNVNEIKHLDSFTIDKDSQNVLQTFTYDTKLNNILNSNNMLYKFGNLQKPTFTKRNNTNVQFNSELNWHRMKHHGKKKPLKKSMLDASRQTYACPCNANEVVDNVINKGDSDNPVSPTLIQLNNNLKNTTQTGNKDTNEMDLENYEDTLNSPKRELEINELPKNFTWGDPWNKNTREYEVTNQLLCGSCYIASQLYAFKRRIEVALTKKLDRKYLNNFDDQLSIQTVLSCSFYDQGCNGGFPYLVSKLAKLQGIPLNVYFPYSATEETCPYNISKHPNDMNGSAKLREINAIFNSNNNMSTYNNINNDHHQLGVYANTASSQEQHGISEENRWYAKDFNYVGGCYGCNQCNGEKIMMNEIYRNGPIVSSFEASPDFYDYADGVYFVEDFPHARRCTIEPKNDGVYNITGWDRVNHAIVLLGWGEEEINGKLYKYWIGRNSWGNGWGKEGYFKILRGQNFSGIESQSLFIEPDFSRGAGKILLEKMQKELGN

Row | Structure (SMILES) | % Inhibition @ 10 uM
1 | O=C(NCC1CCCCC1)c1nc(CS(=O)(=O)c2ccccc2)no1 | 3.56%
2 | COc1ccccc1CN1CCN(C(=O)c2c(OC)cccc2OC)CC1 | 4.55%
3 | COc1ccc(CN2CCN(C3CCN(Cc4ccccc4)CC3)CC2)c(OC)c1 | -4.57%
4 | CC(C)OCCCNC(=O)Cc1cn(C)c2ccccc12 | 2.28%
5 | O=C1NC(=O)/C(=C\c2ccccc2OCc2ccccc2)S1 | 3.25%
6 | CC(=O)NCC/N=C/c1sc2ccccc2c1O | -6.7%
7 | COc1ccc2nc(NC(=O)Cn3ncc4c5ccccc5nc-4c3O)sc2c1 | -6.37%
8 | Cc1ccccc1NC(=O)CC1S/C(=N\c2ccccc2)N(C)C1=O (stereo not drawn) | 2.92%
9 | COc1cc(CN2C[C@@H]3C[C@H](C2)c2cccc(=O)n2C3)ccc1O | -1.85%
10 | Cc1cccc(/C=C2\N=C(c3ccccc3C)OC2=O)c1 | 2.92%
11 | Cc1noc(C(=O)NC(C)C)c1Cl | -5.49%
12 | CCOc1ccc(CCNc2ncnc3onc(C)c23)cc1 | 4.09%
13 | Cn1c(=O)c2c(nc(Cl)n2Cc2ccc(F)cc2)n(C)c1=O | 7.76%
14 | Cn1c(SCC(=O)Nc2cccc(Cl)c2)nc2ccccc21 | -3.23%
15 | CCN(CC)C(=O)COc1ccc(-c2nnc(N3CCCCC3)c3ccccc23)cc1 | -1.47%
16 | CC(=O)N/C(=C\c1ccccc1)C(=O)Nc1ccc(Cl)cc1 | -6.99%
17 | Cn1cccc1/C=C1\Cc2ccccc2C1=O | -0.503%
18 | CC(=O)Nc1ccc(NC(=O)c2ccc(N(Cc3ccccc3C)S(C)(=O)=O)cc2)cc1 | -3.77%
19 | CCCCN(Cc1cc2cccc(C)c2nc1O)S(=O)(=O)c1ccccc1 | 1%
20 | COc1ccc(C(=O)Cc2cccc(OC)c2C(=O)N(C)C)cc1OC | -1.32%
21 | COc1ccc(NC(=O)COc2ccc3oc4c(c3c2)CCCC4)cc1 | 2.44%
22 | COc1ccc(/C=C2/N=C(c3ccc(OC)c(OC)c3)OC2=O)cc1OC | -3.44%
23 | COc1ccccc1Cc1nnc(C(=O)NC2CCCC2)o1 | 2%
24 | Cc1ccccc1CN1CCN(Cc2ccccc2C(F)(F)F)CC1 | 8.6%
25 | CCn1c(C(=O)O)c(CNCCCc2ccccc2)c2ccccc21 | -5.05%
26 | CCCCNC(=O)c1ccc(CS(=O)(=O)c2ccc(OC)cc2)o1 | 5.34%

Row | Structure (SMILES) | % Inhibition @ 10 uM
27 | COc1ccc(/C=C(\C#N)C(N)=S)c(OC)c1OC | 1.42%
28 | O=C(Nc1nn2c(-c3cccs3)nnc2s1)c1cccs1 | 4.86%
29 | CCn1c2ccccc2c2cc(C=C(C#N)C#N)ccc21 | -0.597%
30 | CN(C)CCNC(=O)c1ccc(CS(=O)(=O)c2c(Cl)cccc2Cl)o1 | -2.72%
31 | COc1ccc(Br)cc1C1C(C#N)=C(N)OC2=C1C(=O)CC(C)(C)C2 (stereo not drawn) | 5.9%
32 | COc1ccc(-n2cc(-c3ccccc3)c3c(NCCOCCO)ncnc32)cc1 | 9.07%
33 | CCc1cc2ccccc2c[n+]1CC | -4.75%
34 | COc1cc(OC)cc(C(=O)NC23CC4CC(CC(C4)C2)C3)c1 | 1.24%
35 | Cn1c(NCc2ccccc2Cl)nc2c1c(=O)n(Cc1cccc(Cl)c1)c(=O)n2C | 0.279%
36 | O=C1OCC(Cn2c3ccccc3c3ccccc32)O1 (stereo not drawn) | -0.693%
37 | CCCN1CCN(C(=O)c2cc3c(s2)-c2ccccc2S(=O)(=O)C3)CC1 | 2.84%
38 | O=C(Nc1ccccc1C(=O)NCCN1CCOCC1)c1ccc(Cl)cc1Cl | 8.06%
39 | N#Cc1c(-c2ccncc2)cc(-c2ccc(F)cc2)nc1N | -1.33%
40 | Cc1ccc(C(=O)Nc2nc3ccccc3s2)o1 | 0.35%
41 | Cc1cc(O)nc2c1cnn2C1CCCCC1 | -5.91%
42 | CCCCNC(=O)C(C)N(c1ccc(OC)cc1)S(C)(=O)=O (stereo not drawn) | -8.31%
43 | CCOCCCNCc1cccc(C)c1 | 3.66%
44 | Cc1cccc2sc(NC(=O)CN(C)S(=O)(=O)c3cccs3)nc12 | 1.16%
45 | O=C(NC1CCCCCC1)c1csc2c1CCCC2 | 1.61%
46 | COc1ccc2nc(NC(=O)c3ccc(F)cc3)sc2c1 | 4.54%
47 | Cc1ccccc1NC(=O)c1cc(S(N)(=O)=O)ccc1Cl | -5.15%
48 | CC(Cc1ccc(F)cc1)N1CCN(c2ccccc2)CC1 (stereo not drawn) | -4.04%
49 | Cn1cc(C(=O)Nc2ccc3c(c2)CCC3)cn1 | 1.02%
50 | O=C(Nc1ccncc1)c1cc(-c2ccccc2Cl)nc2ccccc12 | 2.44%
51 | CC(=O)c1ccc(NC(=O)C2COc3ccccc3O2)cc1 (stereo not drawn) | -12.3%
52 | O=C(c1ccco1)N1CCN(C(=O)c2cc(-c3ccccc3F)no2)CC1 | -4.49%

Row | Structure (SMILES) | % Inhibition @ 10 uM
53 | COc1ccc(NC(=O)CC2Sc3ccc(C(F)(F)F)cc3NC2=O)cc1 (stereo not drawn) | 2.92%
54 | Cc1cc(C(F)F)nn1CC(=O)Nc1cccc(F)c1 | 1.67%
55 | COc1cccc(C2C(C(=O)Nc3ccccc3)=C(C)N=c3s/c(=C/c4ccsc4)c(=O)n32)c1 (stereo not drawn) | -3.77%
56 | O=C(CN1C(=O)c2ccccc2C1=O)Nc1nc2n(n1)C(c1ccc(F)cc1)CC(c1ccccc1)N2 (stereo not drawn) | -0.671%
57 | Cn1c2c(c(=O)n(C)c1=O)C(c1ccc(OCc3ccccc3)cc1)C1=C(O)c3ccccc3C1=N2 (stereo not drawn) | 7.1%
58 | COC(=O)C1=C(C)N(C)C(C)=C(C(=O)OC)C1c1cc(Br)ccc1F | 0.238%
59 | Cc1ccc2nc(-c3ccc(S(=O)(=O)N4CCCCC4)cc3)cn2c1 | -3.57%
60 | O=C(O)C1C2c3ccccc3C(c3ccccc32)C1C(=O)Nc1ccc(Cl)cc1 (stereo not drawn) | 7.77%
61 | Cc1nnc(C)n1/N=C\c1cccc(O)c1 | 1.39%
62 | O=C(NCCc1ccccc1)c1ccc(NS(=O)(=O)c2ccccc2)cc1 | -2.03%
63 | O=C(c1ccc(F)cc1)N1CCN(c2ccc(F)cc2)CC1 | -3.27%
64 | CC[C@H](NC(=O)[C@@H](NC(=O)c1ccc(-c2ccccc2Cl)c(Cl)c1)C(C)C)C(=O)c1nc2ccccc2o1 | -6.56%
65 | Cc1cc(NC(=O)C2=Cc3sc4c(c3CS2)CCCC4)no1 | 6.01%
66 | O=C(Cc1cccc2ccccc12)Nc1ccc(S(=O)(=O)N2CCc3ccccc32)cc1 | 0.472%
67 | COc1cccc(CNC(=O)c2ccc(CS(=O)c3cccc(Cl)c3)o2)c1OC (stereo not drawn) | -9.24%
68 | CCc1ccc(S(=O)(=O)Nc2cc(SCC(=O)O)c(O)c3ccccc23)cc1 | 7.2%
69 | O=C(CCSc1nccn1Cc1ccccc1)N1CCOCC1 | -0.661%
70 | O=C(Nc1cccc([N+](=O)[O-])c1)C(C(=O)Nc1cccc([N+](=O)[O-])c1)C12CC3CC(CC(C3)C1)C2 | 3.58%
71 | Clc1ccccc1OCCCCCN1CCCC1 | -9.96%
72 | O=C(/C=C/c1ccccc1)Nc1nnc(-c2ccccc2F)s1 | -2.13%
73 | O=C(COc1ccccc1Cl)Nc1ccc2c(c1)C(=O)N(c1ccccc1)C2=O | -0.598%
74 | COc1ccc2nc(NC(=O)c3cc4ccc5cccnc5c4[nH]3)sc2c1 | -0.707%
75 | CC(C)Cn1c(=O)c2sccc2n2c(CCCC(=O)NCCC34CC5CC(CC(C5)C3)C4)nnc12 | -6.08%
76 | COc1ccc(C(=O)Nc2cccc(C(C)=O)c2)cc1OC | -3.23%
77 | O=C(Cc1ccc(-n2c(-c3ccccc3)nc3cccnc32)cc1)NCC1CCCO1 (stereo not drawn) | -5.54%
78 | COc1cccc(N(CC(=O)N2CCc3ccccc3C2)S(C)(=O)=O)c1 | -2.03%

Row | Structure (SMILES) | % Inhibition @ 10 uM
79 | CN(C)CCN(Cc1ccccc1)Cc1cccc(Br)c1 | -5.2%
80 | COc1ccc(CCNS(=O)(=O)c2cn(C)nc2C)cc1 | 5.49%
81 | CC(C(=O)O)n1cnc2scc(-c3ccc(Cl)cc3)c2c1=O (stereo not drawn) | 3.25%
82 | COc1cccc(Cn2c(C)c(CNC3CCCC(C)C3C)c(C(=O)O)c2C)c1 (stereo not drawn) | -1.92%
83 | Cc1ccc(-c2noc(CCC(=O)NCCC(C)C)n2)cc1 | 5.1%
84 | O=C(/C=C\c1ccccc1)c1ccc(C(=O)/C=C\c2ccccc2)cc1 | -1.76%
85 | CCOC(=O)c1cc2sccc2[nH]1 | -2.84%
86 | OC1CCN(C2C3CC4CC(C3)CC2C4)CC1 (stereo not drawn) | -3.5%
87 | CCC(C(=O)N1CCOCC1)n1nc(C)c2sc3ccccc3c2c1=O (stereo not drawn) | -2.29%
88 | CCn1c2ccccc2c2cc(C(C)=O)ccc21 | -3.04%
89 | Cc1[nH]c2ccc(C(=O)OCCN(C)C)cc2c1C | 0.135%
90 | O=C(NCCc1nnc2ccc(NCC3CCCO3)nn12)c1ccccc1 (stereo not drawn) | -3.74%
91 | COCCN1C(=O)c2ccccc2C(C(=O)NC(C)C)C1c1c[nH]c2ccccc12 (stereo not drawn) | 1.86%
92 | CNC(=O)Cn1ncc2c3ccccc3n(Cc3ccccc3)c2c1=O | -1.58%
93 | Cc1cc(OCc2nc(-c3nonc3N)no2)cc(C)c1Cl | 7.97%
94 | Cc1c2n(c3ccccc13)CN(C)C(C)C2 (stereo not drawn) | -4.61%
95 | COc1ccccc1-c1noc(CCC(=O)NCc2ccco2)n1 | -4.02%
96 | CCn1c(C(=O)N2CCC(C(=O)N3CCN(C4CCCCC4)CC3)CC2)cc2sccc21 | -3.35%
97 | C=CCn1c(-c2cccc(C)c2)nc2ccccc21 | -2.28%
98 | COC(=O)c1cc2oc3ccccc3c2n1Cc1ccccc1F | 1.72%
99 | O=C(Nc1ccc(N2CCOCC2)cc1)C1CC(=O)N(c2ccc(Cl)cc2)C1 (stereo not drawn) | 14.3%
100 | CCN1C(=O)c2cccc3c(NC(=S)NC(=O)C45CC6CC(CC(C6)C4)C5)ccc1c23 | -2.56%
101 | N#CCNC(=O)C(Cc1cc(-c2ccccc2)c(O)c(-c2ccccc2)c1)NC(=O)c1ccc(N2CCOCC2)cc1 (stereo not drawn) | -1.61%
102 | CC(=O)OCC(=O)[C@@]1(O)CCC2C3CC[C@H]4CC(=O)CCC4(C)C3CCC21C (stereo partly drawn) | -0.687%
